# According to PubChem BioAssay AID686979 (National Center for Advancing Translational Sciences (NCATS), 2013):
# The campaign covered roughly 420,000 compounds. About 50,000 (12%) were called active. This list was built around the results that the source calls inconclusive (neither active nor inactive); the mix of calls is not that of the screen. Calls follow the shape of the dose curve; as a rule, active = well fitted inhibition curve with a large enough effect; inconclusive = small, poorly fitted or top-dose-only effect; inactive = flat fitted curve, though single readings scatter. No potency is given beside an inconclusive call; the fits are too rough.
# Assay: qHTS for Inhibitors of human tyrosyl-DNA phosphodiesterase 1 (TDP1): qHTS in cells in presence of CPT; also: nearly all actives have a fitted effect of over 55% in size
# Settings: chicken DT40 Tdp1-/-;hTDP1 cells + 20 nM CPT, ATP luminescence, 48 h; activity change, negative = growth inhibition: at 46.2 µM (top of the series)
# Outline: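 Cell growth measured by CellTiter-Glo luminescence after a minimum 48 h, 37 C compound exposure with 20 nM CPT in Tdp1-knockout DT40 cells stably expressing hTDP1, seeded 400/well; qHTS titration format.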
# % is scaled to controls: 0 for no effect and ±100 for the full control effect; potency is read from the fitted curve at half-maximal effect; tags tell the direction and shape of the fitted curve.
Structure (SMILES),Potency,"activity change, negative = growth inhibition"
CCCc1ccc(OCC(=O)NNC(=S)NC(=O)c2ccco2)cc1,"inconclusive [inhibitor, single point]",–
COC(C(=O)N1CCC(CCC(=O)Nc2ccccc2)CC1)c1ccccc1 (stereo not given),active: 20.6 µM,–
O=C(Cn1c2c(sc1=O)C1c3ccccc3OCC1CS2)Nc1ccc(Cl)c(Cl)c1 (stereo not given),active: 9.2 µM,–
Cc1ccc(NC(=O)C2CCN(c3ncnc4c3nc3n4CCCCC3)CC2)nc1,active: 23.1 µM,–
COCCCNc1nc2c(S(=O)(=O)c3ccc(C)c(C)c3)nnn2c2ccc(Cl)cc12,"inconclusive [inhibitor, single point]",–
Cc1cc(-c2ccc(C)c(S(=O)(=O)N3CCN(C(=O)c4ccco4)CC3)c2)on1,–,inactive: 2.47%
Cc1ccc(C)c(OCC(=O)NCC(C)(C)N2CCOCC2)c1,"inconclusive [inhibitor, single point]",–
C/C(=N\OCc1ccc(C#N)cc1)c1ccc(S(=O)(=O)N(C)C)cc1,"inconclusive [inhibitor, single point]",–
Cc1ccccc1OCCOc1ccc([N+](=O)[O-])cc1/C=N/n1cnnc1,active: 1.16 µM,–
CCCOc1c(Br)cc(C(=O)OCc2cc(=O)n3ccsc3n2)cc1OC,active: 5.8 µM,–
CC1CCCN(CCCNC(=O)CCn2nc(-c3ccccc3)ccc2=O)C1 (stereo not given),–,inactive: -0.192%
Cc1cc(C(=O)CCC(=O)N2CCN(c3ccccc3)CC2)c(C)s1,–,inactive: 11.2%
Cc1ccc(S(=O)(=O)N2CCN(CCC#N)CC2)cc1,–,inactive: -3.23%
Cc1cn(C)c(CC(=O)NCc2ccccc2Cl)c1C(=O)O,–,inactive: 4.47%
CCN(C(=O)C(=O)c1c(C)[nH]c2ccccc12)c1ccccc1,"inconclusive [inhibitor, single point]",–
Cc1cc(NC2CCCCC2)nc2ccccc12,"inconclusive [inhibitor, single point]",–
O=C(N/N=C/c1cc(Br)ccc1OC(=O)c1ccc(Br)cc1)c1ccncc1,active: 4.61 µM,–
COc1ccc(Cl)cc1NC(=O)c1cccc(-n2cnnn2)c1,–,inactive: -1.92%
Cc1ccc(CNC(=O)c2nn(C)c3c2CS(=O)(=O)c2ccccc2-3)cc1,active: 16.4 µM,–
COc1ccc2nc(N/C(=N/S(=O)(=O)c3cccs3)c3ccccc3Cl)sc2c1,–,inactive: -10.3%
Cn1c(N)c(C(=O)COC(=O)c2ncc(Cl)c(Cl)c2Cl)c(=O)n(C)c1=O,–,inactive: 14.8%
O=C1OCCC1=COCCCCCCOC=C1CCOC1=O,–,inactive: -10.3%
CCC(=O)N1c2ccccc2CC1C(=O)NCCc1ccc(C)cc1 (stereo not given),"inconclusive [inhibitor, partial curve, poor fit]",–
O=C(NCc1cccnc1)c1cc(C2CCCN(C(=O)c3ccccn3)C2)on1 (stereo not given),–,inactive: -19.6%
CN(CCC#N)CC(=O)Nc1ccc(S(N)(=O)=O)cc1,–,inactive: 9.73%

Structure (SMILES),Potency,"activity change, negative = growth inhibition"
CCOC(=O)c1ccc(N2C(=O)c3n[nH]c(-c4ccco4)c3C2c2ccc(O)c(OC)c2)cc1 (stereo not given),"inconclusive [inhibitor, single point]",–
CC(C)OC(=O)NCCOC(=O)Nc1cccc(Cl)c1,"inconclusive [inhibitor, single point]",–
O=C(Nc1ccc(Cl)c([N+](=O)[O-])c1)c1ccc2c(c1)OCCO2,"inconclusive [inhibitor, single point]",–
O=C(COc1ccc(Cl)cc1)Nc1cc(S(=O)(=O)N2CCCCC2)ccc1N1CCCCC1,active: 2.91 µM,–
CNC(=O)COc1ccc(NC(=O)CCn2nc(-c3ccc(C)cc3)c3ccccc3c2=O)cc1,"inconclusive [inhibitor, single point]",–
COc1ccc2oc(C(=O)OCC(=O)c3ccc4c(c3)OCCO4)c(C)c2c1,"inconclusive [inhibitor, single point]",–
CC1(C(=O)NS(=O)(=O)Cc2ccccc2)CCN1C(=O)Cc1ccccc1Cl (stereo not given),–,inactive: -5.19%
Cc1cccc(N=C2NC(=O)/C(=C/c3cn(C)c4ccccc34)S2)c1,"inconclusive [inhibitor, single point]",–
CC1CC(C)CN(CC(O)COc2ccc3c(c2)CCC3)C1 (stereo not given),"inconclusive [inhibitor, single point]",–
CCCCN1C(=O)C(CC(=O)NCc2cccs2)CC(C(=O)N2CCOCC2)=C1C (stereo not given),–,inactive: 5.59%
O=C(CSCc1nc2cccnc2n1C1CCCCC1)NCc1cccc(Cl)c1,active: 23.1 µM,–
C=CCn1c(-c2ccc(OC)cc2)nc2ccccc21,active: 18.4 µM,–
CC1=C(c2ccc(C(C)C)cc2)S(=O)(=O)NC1=NCc1ccccc1Br,"inconclusive [inhibitor, partial curve]",–
N#CC1=C(N)NC(=S)C(C(N)=O)C1c1ccc(Cl)cc1Cl (stereo not given),active: 10.3 µM,–
CN(Cc1ccccc1)Cc1nc2c(c(=O)n(C)c(=O)n2C)n1CCCc1ccccc1,active: 18.4 µM,–
Cc1sc(NC(=O)Cn2[nH]c(=O)c3ccccc3c2=O)nc1-c1ccccc1,"inconclusive [inhibitor, single point]",–
Cc1ccc(S(=O)(=O)N(C)CC(=O)O/N=C(\N)c2cccnc2)cc1,"inconclusive [inhibitor, single point]",–
Cc1csc[n+]1CCC1CCCCC1,active: 20 µM,–
CCOc1ccc(N(CC(=O)NCc2ccc(C)cc2)S(=O)(=O)c2c(C)noc2C)cc1,–,inactive: -26.5%
O=C(c1ccc(CSc2nc3ccncc3n2Cc2cccc(F)c2)cc1)N1CCCCC1,"inconclusive [inhibitor, single point]",–
CCCn1cc(SCC(=O)NCc2ccc3c(c2)OCO3)c2ccccc21,"inconclusive [inhibitor, single point]",–
CC(NC(=O)Nc1ccc(Cl)c(Cl)c1)C(c1ccccc1)N1CCOCC1 (stereo not given),active: 25.9 µM,–
Cc1ccc(S(=O)(=O)N2CCC(=O)N(C(COCc3cccc(C(F)(F)F)c3)C(C)C)CC2)cc1 (stereo not given),active: 16.4 µM,–
CCn1c2ccccc2c2cc(CN3CCN(Cc4cc(OC)ccc4O)CC3)ccc21,active: 25.9 µM,–
CC(=O)Nc1cccc(-c2cn3ccccc3n2)c1,–,inactive: 24.5%
